{"source": "the RNAGym collection of RNA variant scans (doi:10.7554/elife.90254)", "parents": {"B1": {"name": "LINE1-mini (parent)", "chain": "GGCAGAGCUCAACACAGCGUGGCAAAGUGGCUGUGGCUAGACUGCC"}}, "note": "Read counts are not given, so values of variants with three or more changes are uncertain."}
{"variants_of": "B1", "experiment": "self-cleavage, relative activity (ratio to wild type); higher = more cleavage; in vitro, sequencing; the parent is a self-cleaving ribozyme"}
{"variant": "G7A G21C G33A U34G C37U", "self-cleavage": 0.03}
{"variant": "C13G G21A C31G G35A U38C", "self-cleavage": 0.03}
{"variant": "A6G G17U G35U C37A", "self-cleavage": 0}
{"variant": "A4C C10A G19C C37U G40C A41C", "self-cleavage": 0}
{"variant": "A6U A14G G40A", "self-cleavage": 0.03}
{"variant": "G5A C15A G29U", "self-cleavage": 0.08}
{"variant": "A6G A14C G29A C37A A39C", "self-cleavage": 0.2}
{"variant": "A6G G22U U43A C46A", "self-cleavage": 0.44}
{"variant": "G5U C15U U32G", "self-cleavage": 0.1}
{"variant": "G2U C42A C45A", "self-cleavage": 0.06}
{"variant": "C8A A14U C18A G21C A25U G35U", "self-cleavage": 0.06}
{"variant": "C10A A12C C18U G22A", "self-cleavage": 0.01}
{"variant": "C10G U34A C45U C46U", "self-cleavage": 0}
{"variant": "C8A G22U U38G", "self-cleavage": 0.07}
{"variant": "A6C C10U C18A G40U", "self-cleavage": 0.01}
{"variant": "C3A G7A U9G A14G C45A", "self-cleavage": 0.26}
{"variant": "A16G G33C C46U", "self-cleavage": 0}
{"variant": "G2A C3A C8A U34G C42G", "self-cleavage": 1.89}
{"variant": "G19U C31G C42U", "self-cleavage": 0.03}
{"variant": "G19C U28A U34A C45U", "self-cleavage": 0.98}
{"variant": "A25G G30C G35A", "self-cleavage": 0.02}
{"variant": "A6G G7A C13U G17C", "self-cleavage": 0.14}
{"variant": "C3A C13U U20A G22A G30A U38A A39U C42G", "self-cleavage": 0.13}
{"variant": "A26G C31A A39G", "self-cleavage": 0.05}
{"variant": "A4U A12U G33A", "self-cleavage": 0.12}
{"variant": "C8U U32A C37G", "self-cleavage": 0.26}
{"variant": "C15U C23U G29C A41C", "self-cleavage": 0.02}
{"variant": "C8U A16G U20G G29U U34G", "self-cleavage": 0.02}
{"variant": "A24G G27A U38G", "self-cleavage": 0.01}
{"variant": "G17A G29C C42U", "self-cleavage": 0.01}
{"variant": "G7U C15U G30A", "self-cleavage": 0.18}
{"variant": "G7U G17U C42U", "self-cleavage": 0.08}
{"variant": "G2C A4C A6G A11G C18U", "self-cleavage": 0.02}
{"variant": "G5C C23A A25G", "self-cleavage": 0.06}
{"variant": "G2C C13A A14C G27U", "self-cleavage": 0.06}
{"variant": "C3A G5C U34A G40U", "self-cleavage": 0.05}
{"variant": "C10U G35C A39G", "self-cleavage": 0.03}
{"variant": "A25C G27C G30A U34A", "self-cleavage": 0.22}
{"variant": "A14G G22U A26U U38C A41C", "self-cleavage": 0.02}
{"variant": "G1A A24U A25U U32C C37A", "self-cleavage": 0.05}
{"variant": "G17A C23G C45A", "self-cleavage": 0.03}
{"variant": "G2A C13A U20C G22C G35A U38A", "self-cleavage": 0.12}
{"variant": "G2U U28A G33U C45G", "self-cleavage": 0.02}
{"variant": "G1C U28A A41C U43A", "self-cleavage": 0}
{"variant": "A12G G19C C23G", "self-cleavage": 0}
{"variant": "C3A C10A A12U G33A G35A", "self-cleavage": 0.04}
{"variant": "A6U G29C U43C", "self-cleavage": 0.51}
{"variant": "G19A G21U U38G G40A", "self-cleavage": 0.04}
{"variant": "U9G G17A C23G U28G G40C", "self-cleavage": 0.05}
{"variant": "G7C A11G G29C U32A G40C", "self-cleavage": 0.01}
{"variant": "C13A C15U G29U", "self-cleavage": 0.18}
{"variant": "C3U A11C G19U C37G", "self-cleavage": 0.02}
{"variant": "C13A U28A U38G", "self-cleavage": 0.01}
{"variant": "G7U U9C A11U C45U", "self-cleavage": 0}
{"variant": "G17C C18G G35A C37G", "self-cleavage": 0.06}
{"variant": "G2U G17A G22U C42U", "self-cleavage": 0.02}
{"variant": "C8A A26C G29A", "self-cleavage": 0.53}
{"variant": "C13G G33C G36A", "self-cleavage": 0.03}
{"variant": "C10G G17A G19C G27C C31U", "self-cleavage": 0.03}
{"variant": "C13U G29U A39C", "self-cleavage": 0.1}
{"variant": "C3G A6U C23U", "self-cleavage": 0.41}
{"variant": "G21C G27U G30A U34A", "self-cleavage": 0.07}
{"variant": "G5U C13U G17A A25C", "self-cleavage": 0.05}
{"variant": "C8U G21C U34G G36U", "self-cleavage": 0.06}
{"variant": "A16U G17U A24G", "self-cleavage": 0.03}
{"variant": "A25G G35C C42U", "self-cleavage": 0.04}
{"variant": "C31U U32G U38G U43C C46U", "self-cleavage": 0.06}
{"variant": "C3U G29A G33A C37A U43A", "self-cleavage": 0.04}
{"variant": "G7U G17A G22U", "self-cleavage": 0.19}
{"variant": "A6C G7C A11U", "self-cleavage": 0.11}
{"variant": "G1C G5C U9G G21U", "self-cleavage": 0.03}
{"variant": "C10A A14G G35U", "self-cleavage": 0.01}
{"variant": "C8A G22C G27U G29U", "self-cleavage": 0.04}
{"variant": "C15A G19C G36A C46A", "self-cleavage": 0.07}
{"variant": "U9C U34C G40A C46U", "self-cleavage": 0.01}
{"variant": "G1U C15A G35U", "self-cleavage": 0.04}
{"variant": "G7A C13A G21A G22A G29A G30C C45G", "self-cleavage": 0.28}
{"variant": "C8U A16G U34G", "self-cleavage": 0.01}
{"variant": "U9C A11C C18U G33U", "self-cleavage": 0.04}
{"variant": "G17A C31G C46A", "self-cleavage": 0.02}
{"variant": "C13U U28A G29U U43C", "self-cleavage": 0.05}
{"variant": "A4U C8A A25G", "self-cleavage": 0.07}
{"variant": "G1U G27U G33C C42A", "self-cleavage": 0.02}
{"variant": "G17A G22A C23U", "self-cleavage": 0.41}
{"variant": "A25C A26U G29U", "self-cleavage": 2.59}
{"variant": "A12G G21U G35U A41G", "self-cleavage": 0.01}
{"variant": "A14G G21A G30A", "self-cleavage": 0.28}
{"variant": "C23G G36U C37U", "self-cleavage": 0.03}
{"variant": "G2C A4G C46A", "self-cleavage": 0.04}
{"variant": "A4C G7U U28C A39G", "self-cleavage": 0.04}
{"variant": "G29C C31A U32A", "self-cleavage": 0.14}
{"variant": "A11U U20A A24U G29U", "self-cleavage": 0.09}
{"variant": "G7C U9C A16U U28A A39G G44C C46U", "self-cleavage": 0.03}
{"variant": "C13U G29U G33A", "self-cleavage": 0.07}
{"variant": "G7U G17U U20A", "self-cleavage": 0.18}
{"variant": "A14C G27A G33C C42A C45G", "self-cleavage": 0.02}
{"variant": "G1A G5U U20A G27A G36C U38C C42U", "self-cleavage": 0.15}
{"variant": "G17A C18U C46G", "self-cleavage": 0.04}
{"variant": "C23U A25C C37A", "self-cleavage": 0.01}
{"variant": "G22U C23U G29A", "self-cleavage": 2.83}
{"variant": "G2A G19U G22C A26C C42U", "self-cleavage": 0.04}
{"variant": "A4C G7C C10G U28A", "self-cleavage": 0.01}
{"variant": "G2U A12U C15A C23A C42U", "self-cleavage": 0.11}
{"variant": "C23U A25G U28A C37A U38G C45A", "self-cleavage": 0}
{"variant": "C3G A6C A16U U32A", "self-cleavage": 0.08}
{"variant": "A11U A12C C37U", "self-cleavage": 0.01}
{"variant": "G1U A4G U9G G44U", "self-cleavage": 0.05}
{"variant": "C13A U20G G33C U38A G40U", "self-cleavage": 0.03}
{"variant": "C3A G36A A39U", "self-cleavage": 0.04}
{"variant": "U9G U34G C42U", "self-cleavage": 0.03}
{"variant": "C10U A16U C23A A24U A25U C37U", "self-cleavage": 0.03}
{"variant": "U20A C45U C46U", "self-cleavage": 0.13}
{"variant": "C10G C37U U43G C46G", "self-cleavage": 0}
{"variant": "A11C A16C C31U", "self-cleavage": 0.07}
{"variant": "G7A C15U G19A G27U", "self-cleavage": 0.22}
{"variant": "G7U C10U G21U G27C G29C G40A", "self-cleavage": 0.01}
{"variant": "G1A C18A U20G G35U G36A", "self-cleavage": 0.06}
{"variant": "C3G G22A C31G U43G", "self-cleavage": 0.06}
{"variant": "C8A A14U G44C", "self-cleavage": 0.45}
{"variant": "G17U U32G A39C", "self-cleavage": 0.06}
{"variant": "U28C C31G G40C", "self-cleavage": 0}
{"variant": "G2A C13G G40A", "self-cleavage": 0.15}
{"variant": "A4C A6G C18U A24G", "self-cleavage": 0.18}
{"variant": "C3U U28C G35A G36A", "self-cleavage": 0.48}
{"variant": "U9A C23U G30A", "self-cleavage": 0.04}
{"variant": "G7C C15U G21U U43C", "self-cleavage": 0.39}
{"variant": "C8U A16G A26U G30U", "self-cleavage": 0.07}
{"variant": "C10A G19A G21A", "self-cleavage": 0.86}
{"variant": "C18G U28A G29C C42U G44A", "self-cleavage": 0.04}
{"variant": "C15U C23U C37U", "self-cleavage": 0.08}
{"variant": "G2U G7A C8U G22A C45U", "self-cleavage": 0.03}
{"variant": "U28G A39C U43C C46U", "self-cleavage": 0.03}
{"variant": "C18A G30U C31U", "self-cleavage": 0.05}
{"variant": "U9C A11C C13U G19A C23U U38A A39C", "self-cleavage": 0}
{"variant": "G2C A14U G17U", "self-cleavage": 0.09}
{"variant": "G22C C23U G35A C45U", "self-cleavage": 0.26}
{"variant": "G35U C37A G40U C46A", "self-cleavage": 0.02}
{"variant": "A25C U43C G44A", "self-cleavage": 0.08}
{"variant": "A6C G33A C37A", "self-cleavage": 0.1}
{"variant": "A6C A14U A16C G29C", "self-cleavage": 0.12}
{"variant": "A4C A12U G17C G22A G44U C45U", "self-cleavage": 0.2}
{"variant": "G2U C10A G17U", "self-cleavage": 0}
{"variant": "G5A U38G G40C C46A", "self-cleavage": 0.11}
{"variant": "U9G A12G G29U", "self-cleavage": 0.01}
{"variant": "C8U C18A G27U G35U G40U C45A", "self-cleavage": 0.21}
{"variant": "G5U U34A U38A C42A", "self-cleavage": 0.05}
{"variant": "A14G A16C G21U A25G G33U", "self-cleavage": 0.01}
{"variant": "G2A A11C G19U A25G C37A", "self-cleavage": 0.01}
{"variant": "G1U C23A G35U G36U C46G", "self-cleavage": 0.06}
{"variant": "U9A C10G U20G", "self-cleavage": 0.04}
{"variant": "G5U G7U A11C C15U A16C C42U", "self-cleavage": 0.02}
{"variant": "C3A G5U U20A G29U C37U U43A C45G", "self-cleavage": 0.02}
{"variant": "A12U G17U C45U", "self-cleavage": 0.05}
{"variant": "C8A A25G U32G A41G", "self-cleavage": 0.08}
{"variant": "G19U G21A A41U", "self-cleavage": 1.17}
{"variant": "G2C G5U C18A C37U", "self-cleavage": 0}
{"variant": "C3U G7U G22C C23U", "self-cleavage": 0.08}
{"variant": "C3U C10A G17U", "self-cleavage": 0.07}
{"variant": "G22C U32C C37G", "self-cleavage": 0.01}
{"variant": "G1A A24G C45G", "self-cleavage": 0.11}
{"variant": "C3G C37U G40U U43A", "self-cleavage": 0.13}
{"variant": "G19A G40A C42G G44A C46U", "self-cleavage": 0.15}
{"variant": "A6C C15U G19U U38G", "self-cleavage": 0.02}
{"variant": "A11U C13G C23U", "self-cleavage": 0.01}
{"variant": "G5A A25C U32G C42U", "self-cleavage": 0.08}
{"variant": "C18U G35C G40U C42G", "self-cleavage": 0.02}
{"variant": "G21U C31G A41C", "self-cleavage": 0.35}
